Source: publication PMC4336329 (PLoS ONE, 2015)
Among all 310,000 compounds or so, about 14,000 (4.5%) showed an effect of 50% or more. Effects have a minus sign here. The list shows a part of the results.

molecular target: human ether-à-go-go-related gene (hERG) potassium channel (human, UniProt Q12809); assay: primary screen, population patch clamp on CHO cells stably expressing hERG
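Further: peak tail current of the secondary pulse compared with the same well before compound.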

Sequence of human ether-à-go-go-related gene (hERG) potassium channel (Q12809 whole entry, looked up): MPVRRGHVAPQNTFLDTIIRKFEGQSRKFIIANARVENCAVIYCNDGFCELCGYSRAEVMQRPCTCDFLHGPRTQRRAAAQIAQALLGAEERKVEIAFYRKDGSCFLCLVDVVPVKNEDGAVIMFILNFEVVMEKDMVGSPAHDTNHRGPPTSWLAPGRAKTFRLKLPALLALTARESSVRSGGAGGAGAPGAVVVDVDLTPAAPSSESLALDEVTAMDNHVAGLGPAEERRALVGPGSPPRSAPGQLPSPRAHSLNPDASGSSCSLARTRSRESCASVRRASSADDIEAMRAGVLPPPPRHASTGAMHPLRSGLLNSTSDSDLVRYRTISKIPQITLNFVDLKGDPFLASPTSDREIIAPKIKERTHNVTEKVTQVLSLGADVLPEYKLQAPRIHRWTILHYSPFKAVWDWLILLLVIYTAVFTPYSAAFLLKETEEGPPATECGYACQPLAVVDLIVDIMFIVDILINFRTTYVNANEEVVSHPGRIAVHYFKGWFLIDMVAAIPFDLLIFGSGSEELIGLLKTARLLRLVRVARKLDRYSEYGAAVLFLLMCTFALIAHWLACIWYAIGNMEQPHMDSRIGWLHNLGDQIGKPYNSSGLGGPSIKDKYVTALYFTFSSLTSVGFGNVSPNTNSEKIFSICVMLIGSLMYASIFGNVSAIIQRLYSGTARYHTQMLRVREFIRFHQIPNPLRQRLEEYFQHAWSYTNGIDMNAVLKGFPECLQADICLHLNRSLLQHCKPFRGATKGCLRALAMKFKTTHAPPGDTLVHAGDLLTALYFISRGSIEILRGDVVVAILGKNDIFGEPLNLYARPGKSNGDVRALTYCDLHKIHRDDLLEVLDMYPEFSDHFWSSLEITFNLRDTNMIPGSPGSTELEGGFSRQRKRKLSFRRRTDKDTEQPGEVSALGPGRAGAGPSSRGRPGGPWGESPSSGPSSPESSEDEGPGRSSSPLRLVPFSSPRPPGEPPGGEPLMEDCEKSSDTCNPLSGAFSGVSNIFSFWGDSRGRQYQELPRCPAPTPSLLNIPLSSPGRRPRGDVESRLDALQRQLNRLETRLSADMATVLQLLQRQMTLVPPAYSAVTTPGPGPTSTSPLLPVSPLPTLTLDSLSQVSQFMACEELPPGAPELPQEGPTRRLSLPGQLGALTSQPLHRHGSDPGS

Row | SMILES | hERG current change (%, negative = inhibition) at 10uM [%]
1 | O=C(O)C(=O)O.O=C(c1ccco1)N1CCN(CC(=O)N2c3ccccc3CCc3ccccc32)CC1 | -4.72
2 | CC1(C)OC2CCN3C(C(O)COS3(=O)=O)C2O1 (centres unmarked) | 11
3 | CCOc1ccc(N2C(=O)CC(SC(=NC)Nc3cccc(OC)c3)C2=O)cc1 (centres unmarked) | 19.5
4 | COc1ccc(CN2CCC(Oc3ccc(C(=O)NCc4ccccn4)cc3)CC2)c(F)c1 | -12.6
5 | CCNC(=O)NC(=O)COC(=O)CNC(=O)COc1ccccc1 | 19.4
6 | COc1ccc(C(=O)Nc2ccc(OCC(=O)N3CCOCC3)cc2)c(OC)c1OC | 2.17
7 | CCC(C)NC(=O)C1CCC(CNS(=O)(=O)c2ccc3c(c2)CC(C)N3C(=O)C2CC2)CC1 (centres unmarked) | -9.31
8 | O=C(O)Cc1csc(NC(=O)c2ccco2)n1 | 13.9
9 | CCCCNC(=O)N1CCCC(N(C)CCc2ccc(OC)c(OC)c2)C1 (centres unmarked) | -67.8
10 | COc1ccccc1-c1nc(C#N)c(NCCCn2ccnc2)o1 | -7.62
11 | CC(=O)n1cc([C@@H]2C=C(C(=O)N3CCOCC3)O[C@H](OCc3ccc(CO)cc3)C2)c2ccccc21 | -74.8
12 | C=CCn1c(CCCNC(=O)c2ccccc2OC)nc2ccccc21 | -26.8
13 | CCOc1cccc(C(=O)NC(=S)Nc2ccc(N3CCCC3)cc2)c1 | 10.8
14 | O=C(COc1cccc(NC(=O)c2cccc([N+](=O)[O-])c2)c1)c1ccc(F)cc1 | -47.8
15 | S=C1NCN(CCc2ccccc2)CN1 | 4.85
16 | O=C(NC(CSSCC(NC(=O)c1ccccc1)C(=O)O)C(=O)O)c1ccccc1 (centres unmarked) | 2.12
17 | CCCCn1c(SCC(=O)Nc2cc(C)on2)nnc1-c1ccco1 | -23.3
18 | O=C(O)CNC(=O)/C(=C/c1cccc([N+](=O)[O-])c1)NC(=O)c1ccco1 | -1.47
19 | O=C(NC1CCOCC1)C1CCC(=O)N(CCc2ccc(Cl)cc2)C1 (centres unmarked) | -0.418
20 | CN1CCN(/C(=N\O)c2nonc2N)CC1 | -1.19
21 | COc1ccc(C2=CSC3=NNC4(CCCCC4)NN23)cc1 | 0.832
22 | CCOc1ccccc1Nc1nnc(SCC(=O)NC(=O)c2cccn2C)s1 | 3.59

Row | SMILES | hERG current change (%, negative = inhibition) at 10uM [%]
23 | CCCc1ccc(/C=C2\C(=O)c3ccccc3C(O)=C2C(=O)OCC)cc1 | -0.732
24 | CC(C)OC(=O)c1c(F)c(F)c(N2CCOCC2)c(F)c1F | -20.9
25 | COc1ccc(C/C(C)=N/NC(=O)c2ccncc2)cc1 | -7.41
26 | O=C1c2ccccc2C(=O)N1CN(C(=O)c1ccccc1[N+](=O)[O-])c1ccc(F)cc1 | -9.74
27 | Cn1ncc(S(=O)(=O)Cc2ccccc2)c(Cl)c1=O | 6.84
28 | O=c1[nH]c(=S)n(CCC2=CCCCC2)c(O)c1C=NCCCn1ccnc1 | -69.3
29 | N/C(=N\NC(=O)c1ccccc1)c1cc2ccccc2oc1=O | 23.7
30 | Cc1ccccc1CSCC(=O)Nc1ccccc1F | 18.3
31 | CCN1C(=O)N(c2ccc(C(C)=O)cc2)S(=O)(=O)c2ccccc21 | -0.163
32 | Cc1ccc2c(C)nc(N/C(N)=N/S(=O)(=O)c3ccc([N+](=O)[O-])cc3)nc2c1 | -13.1
33 | CC(C)NC(=O)CN1C(=O)NC(CCc2ccccc2)C1=O (centres unmarked) | 5.75
34 | Cc1nc(NCCN2CCOCC2)c2nnn(Cc3ccccc3Cl)c2n1 | -17.9
35 | O=C(Nc1ccccc1F)C1CCCC1 | 13.6
36 | Cc1cc(Oc2ccc(=O)n(C)n2)nc(Oc2ccc(=O)[nH]n2)n1 | 11.7
37 | COc1ccc(C2=C(Nc3ccccc3)c3ccccc3C2=O)cc1 | -2.19
38 | Cc1oc(-c2ccccc2Cl)nc1Cn1cccc1C1=NC(c2ccccc2)CO1 (centres unmarked) | 8
39 | CCOC(=O)c1sc(-c2ccccc2)cc1NC(=O)CSc1nnnn1C | -1.13
40 | Cc1sc2c(=O)n3c(nc2c1C(=O)NCCCN1CCOCC1)CCCCC3 | -17.9
41 | CNC(=S)N1CCc2cc(OC)c(OC)cc2C1COc1ccc(F)cc1 (centres unmarked) | -22.6
42 | COc1cccc(CNCCNC(=O)c2nonc2N)c1.Cl | 9.27
43 | CCN1CCN(C(=O)Nc2cc(Cl)ccc2OC)CC1 | 2.98
44 | Cn1cc(Cl)c(C(=O)NC2CCCCCC2)n1 | 1.36
